PubChem BioAssay AID1508624 (National Center for Advancing Translational Sciences (NCATS), 2021)
Out of some 48,000 compounds screened, about 120 (0.25%) were called active. Roughly 4% stayed inconclusive and do not appear here. Calls follow the shape of the dose curve; as a rule, active = well fitted activation curve with a large enough effect; inconclusive = small, poorly fitted or top-dose-only effect, or another doubt; inactive = no such curve, though single readings can be large or run the other way. The list shows a part of the results.

Assay: Primary qHTS for Identification of Small Molecule Activators of Huntingtin-Antisense Promoter Activity; also: nearly all actives have a fitted effect of over 55% in size
Settings: HEK293 HTT-AS promoter firefly luciferase reporter, 24 h; series mostly up to 57.5 µM; activity change, positive = activation: at the top concentration
Procedure, shortened: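 Luminescence was read after Dual-Glo reagent and a 10 min room-temperature incubation. Values were normalized to vehicle (0% activity) and zero RLU (-100% activity). Reporter HEK293 cells had been exposed to compounds (up to 57.5 uM final) for 24 h.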

Q: Which “activity change, positive = activation” value does the source give for Cc1ccc(CNC(=O)c2oc3c(c2C)-c2nn(Cc4ccc(Cl)cc4)cc2CC3)cc1 here?
A: Its value is inactive: -33%.

Q: With Cc1cc(S(=O)(=O)C(CNC(=O)c2ccc(OC(C)C)cc2)c2cccs2)ccc1F (configuration not stated) as the compound, how does the “activity change, positive = activation” value read?
A: The value was inactive: -38.2%.

Q: Which “activity change, positive = activation” value does the source give for CCOC(=O)CNc1nc(Oc2ccc(=O)n(C)n2)nc(N(CC)CC)n1 here?
A: Its value is inactive: -26.9%.

Q: For COc1ccc(N2CCN(Cc3nc4c(c(=O)[nH]c(=O)n4C)n3Cc3ccc(Cl)cc3)CC2)cc1, which “activity change, positive = activation” value is on record?
A: Its value is inactive: -21.5%.

Q: With Cc1cccc(-c2nc(SCC(=O)N3CCc4ccccc43)c3c(=O)n(C)c(=O)n(C)c3n2)c1 as the compound, how does the “activity change, positive = activation” value read?
A: The value was inactive: -2.59%.

Q: Which “activity change, positive = activation” value does the source give for CCC(=O)Nc1cc(-c2cccc(C)c2)nn1-c1ccccc1 here?
A: Its value is inactive: 17.9%.

Q: With COc1cccc2c1ncc1c(-c3ccc(C)cc3)nn(-c3cccc([N+](=O)[O-])c3)c12 as the compound, how does the “activity change, positive = activation” value read?
A: Its value is inactive: -17.7%.

Q: Which “activity change, positive = activation” value does the source give for Cc1cccc(-c2nnc(SCc3cc(=O)c4cccc(Cl)c4[nH]3)n2C)c1 here?
A: The value was inactive: -37.9%.

Q: Which “activity change, positive = activation” value does the source give for CCOc1ccc(-n2c(SCC(=O)N3CCc4ccccc43)nc3c([nH]c4ccccc43)c2=O)cc1 here?
A: The value was inactive: -9.73%.

Q: For COc1ccc(NC(=O)Cn2c(=O)c(-c3cc(C)ccc3NC(C)=O)nc3ccccc32)c(OC)c1, which “activity change, positive = activation” value is on record?
A: The value was inactive: -4.6%.

Q: For Cc1cc(C)cc(NC(=O)C(=O)NCC(c2ccc3c(c2)OCO3)N2CCN(C)CC2)c1 (configuration not stated), which “activity change, positive = activation” value is on record?
A: Its value is inactive: 13%.

Q: For COc1ccc(NC(=O)N(CCC(C)C)C(C)c2cccs2)c(OC)c1 (configuration not stated), which “activity change, positive = activation” value is on record?
A: Its value is inactive: -21.5%.

Q: Which “activity change, positive = activation” value does the source give for O=C(COc1ccccc1)NCc1ccc2c(c1)CCN2C(=O)c1ccc(Cl)cc1 here?
A: The value was inactive: -1.1%.

Q: Which “activity change, positive = activation” value does the source give for Cc1ccc(C2CCN(C(=O)c3cnn(-c4cccc(Cl)c4)c3C3CCN(C(=O)OC(C)(C)C)CC3)C2)cc1 (configuration not stated) here?
A: The value was inactive: -43%.

Q: With Cc1cc(=O)[nH]c2nnc(SCC(=O)Nc3ccc(OC(F)(F)F)cc3)n12 as the compound, how does the “activity change, positive = activation” value read?
A: The value was inactive: 0.493%.

Q: For COc1ccc(OC)c(NC(=O)c2cc(-c3ccc(Cl)s3)nc3ccccc23)c1, which “activity change, positive = activation” value is on record?
A: Its value is inactive: -4.97%.

Q: For Cc1c(Cl)cccc1NC(=O)CSc1ncc2c(n1)-c1ccccc1N(C)S2(=O)=O, which “activity change, positive = activation” value is on record?
A: The value was inactive: -14.8%.

Q: For COC(=O)c1c(NC(=O)c2cc3ccccc3c(=O)o2)sc2c1CCCC2, which “activity change, positive = activation” value is on record?
A: The value was inactive: 5.61%.

Q: For Cc1cccc(C)c1OCC(=O)Nc1ncn[nH]1, which activity change, positive = activation is on record?
A: Its activity change, positive = activation is inactive: 9.41% [at 11.5 µM, percent change from vehicle, -100% = no light].

Q: Which “activity change, positive = activation” value does the source give for CCN(CC)CCNC(=O)c1c(C)oc2ncnc(N3CCOCC3)c12 here?
A: Its value is inactive: -0.402%.

Q: Which “activity change, positive = activation” value does the source give for CCOc1ccc(CCNC(=O)c2cnc3sc(N(CC)CC)nn3c2=O)cc1OCC here?
A: Its value is inactive: -17.1%.

Q: For Cc1cc(C)c(NC(=O)Cn2cc(S(=O)(=O)Cc3ccccc3F)c3ccccc32)c(C)c1, which “activity change, positive = activation” value is on record?
A: Its value is inactive: -25.3%.

Q: With COc1ccccc1NC(=O)N(Cc1nnc2n1CCCCC2)c1ccc(F)cc1 as the compound, how does the “activity change, positive = activation” value read?
A: The value was inactive: -10.4%.

Q: With COc1ccc(CCNC(=O)c2ccc(Nc3nc4ccccc4n4nnnc34)cc2)cc1OC as the compound, how does the “activity change, positive = activation” value read?
A: The value was inactive: -30.9%.

Q: With CC(=O)c1cccc(NC(=O)C(C)n2c(=O)cc(C)c3c(C)nn(-c4ccccc4)c32)c1 (configuration not stated) as the compound, how does the “activity change, positive = activation” value read?
A: The value was inactive: -15.4%.

Q: With COc1ccc(OC)c(CNS(=O)(=O)c2ccc3c(c2)CCCN3C(C)=O)c1 as the compound, how does the “activity change, positive = activation” value read?
A: The value was inactive: -22%.

Q: With O=C(NCCc1ccccc1)c1ccc2c(c1)N(Cc1ccc(F)cc1)C(=O)c1ccccc1S2(=O)=O as the compound, how does the “activity change, positive = activation” value read?
A: Its value is inactive: -16.6%.

Q: With Cc1cccc(N(CC(O)Cn2c3ccccc3c3ccccc32)S(=O)(=O)c2ccc(F)cc2)c1 (configuration not stated) as the compound, how does the “activity change, positive = activation” value read?
A: The value was inactive: -57%.

Q: Which “activity change, positive = activation” value does the source give for CC(C)c1ccc(NC(=O)c2cc3sc(Cl)cc3n2C)cc1 here?
A: The value was inactive: 5.24%.

Q: With Cc1ccccc1S(=O)Cc1ccc(C(=O)N2CCN(c3cccc(C)c3C)CC2)o1 (configuration not stated) as the compound, how does the “activity change, positive = activation” value read?
A: Its value is inactive: -47%.

Q: With Cc1ccc(-c2c(CN3CCN(c4cccc(C)c4)C(C)C3)csc2C)cc1 (configuration not stated) as the compound, how does the “activity change, positive = activation” value read?
A: Its value is inactive: -19.8%.

Q: With Cc1ccc2onc(CC(=O)N3CCN(c4ccc(F)cc4)CC3)c2c1 as the compound, how does the “activity change, positive = activation” value read?
A: The value was inactive: -12.4%.

Q: For CC(C)CC(=O)N1c2nc(C(C)C)nn2C2(CCCCC2)[C@@H]2CCCC[C@@H]21, which “activity change, positive = activation” value is on record?
A: The value was inactive: -10.3%.

Q: Which “activity change, positive = activation” value does the source give for CCOC(=O)c1[nH]c2c(c1Cc1ccccc1C)C(=O)CC(c1cc(OC)ccc1OC)C2 (configuration not stated) here?
A: The value was inactive: -30.2%.

Q: For CN1C(=O)Cc2cc(S(=O)(=O)N3CCN(c4ccc(Cl)cc4)CC3)ccc21, which “activity change, positive = activation” value is on record?
A: Its value is inactive: -20.5%.

Q: With CCOc1ccc(OCC)c(NC(=O)C2CCN(S(=O)(=O)c3c(C)noc3/C=C/c3ccccc3F)CC2)c1 as the compound, how does the “activity change, positive = activation” value read?
A: Its value is inactive: 17.9%.

Q: Which “activity change, positive = activation” value does the source give for O=C(c1ccc2c(c1)OCCO2)N(Cc1cccnc1)c1nc2c(Cl)cccc2s1 here?
A: The value was inactive: -36.9%.

Q: Which “activity change, positive = activation” value does the source give for COc1cccc(Cn2c(CNS(=O)(=O)c3ccc(F)c(Cl)c3)nc3cccnc32)c1 here?
A: The value was inactive: -19.7%.

Q: For CCc1nn2c(=O)cc(COc3ccc(/C=C(\C#N)C(=O)Nc4ccc(F)cc4)cc3OC)nc2s1, which “activity change, positive = activation” value is on record?
A: The value was inactive: 0.157%.

Q: For CC(C)COc1ccc(C(=O)Nc2cc3nn(-c4ccccc4)nc3cc2Cl)cc1, which “activity change, positive = activation” value is on record?
A: Its value is inactive: 12.2%.

Q: For O=S(=O)(NCC(c1cccs1)S(=O)(=O)c1ccccc1)c1ccc(F)cc1 (configuration not stated), which “activity change, positive = activation” value is on record?
A: Its value is inactive: -16.5%.

Q: Which “activity change, positive = activation” value does the source give for CCn1c2ccccc2c2nnc(SCC(=O)Nc3ccccc3OC)nc21 here?
A: Its value is inactive: -14%.

Q: Which “activity change, positive = activation” value does the source give for CCOC(=O)c1ccc(NC(=O)C2CCN(S(=O)(=O)c3ccc4c(c3)CCCC(=O)N4)CC2)cc1 here?
A: Its value is inactive: -35.3%.

Q: Which “activity change, positive = activation” value does the source give for CCOc1ccccc1CNC(=O)c1cc(-c2ccc(Cl)s2)nc2ccccc12 here?
A: The value was inactive: -15.8%.

Q: With Cc1ccccc1-c1nn2c(=O)cc(CN3CCN(C(=O)/C=C/c4ccccc4)CC3)nc2s1 as the compound, how does the “activity change, positive = activation” value read?
A: The value was inactive: -2.95%.

Q: For CCc1ccc(NC(=O)Cn2c(=O)n(CCC(=O)N3CCc4ccccc4C3)c(=O)c3ccccc32)cc1, which “activity change, positive = activation” value is on record?
A: Its value is inactive: -10.8%.

Q: For Cc1cc(C)cc(NC(=O)N2CCC3(CC2)Oc2ccccc2C(=O)N3Cc2ccccc2F)c1, which “activity change, positive = activation” value is on record?
A: Its value is inactive: -17.7%.
